Source: patent publication US20210269548A1 (Kyowa Kirin, published 2021)
Numbering of substitutions follows the chain as printed. In names and notes the source's numbering stands.

T1: human CSPG5 (human, UniProt O95196 31-566)
T1 construct: Full-length gene expressed on cell membrane (Expi293F, L929); also called human CSPG5/Expi293F cells; human CSPG5/L929#09
T1 sequence: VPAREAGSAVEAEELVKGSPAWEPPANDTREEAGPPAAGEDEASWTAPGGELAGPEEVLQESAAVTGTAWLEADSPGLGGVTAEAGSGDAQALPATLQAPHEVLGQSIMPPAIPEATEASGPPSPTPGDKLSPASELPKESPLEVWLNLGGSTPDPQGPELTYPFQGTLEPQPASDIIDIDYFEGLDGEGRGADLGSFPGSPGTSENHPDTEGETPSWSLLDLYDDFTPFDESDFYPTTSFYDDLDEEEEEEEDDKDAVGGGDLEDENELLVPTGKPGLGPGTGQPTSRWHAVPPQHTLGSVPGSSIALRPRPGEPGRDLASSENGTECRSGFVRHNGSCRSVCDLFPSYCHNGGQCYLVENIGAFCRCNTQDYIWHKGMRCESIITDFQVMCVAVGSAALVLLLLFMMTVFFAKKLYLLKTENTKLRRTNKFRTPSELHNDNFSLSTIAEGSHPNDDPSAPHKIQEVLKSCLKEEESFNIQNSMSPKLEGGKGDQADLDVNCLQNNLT

T2: monkey CSPG5 (monkey (rhesus monkey), UniProt O95196 31-566 (human entry))
T2 construct: Full-length gene expressed on Expi293F cells; also called monkey CSPG5/Expi293F cells; rhesus monkey CSPG5
T2 chain: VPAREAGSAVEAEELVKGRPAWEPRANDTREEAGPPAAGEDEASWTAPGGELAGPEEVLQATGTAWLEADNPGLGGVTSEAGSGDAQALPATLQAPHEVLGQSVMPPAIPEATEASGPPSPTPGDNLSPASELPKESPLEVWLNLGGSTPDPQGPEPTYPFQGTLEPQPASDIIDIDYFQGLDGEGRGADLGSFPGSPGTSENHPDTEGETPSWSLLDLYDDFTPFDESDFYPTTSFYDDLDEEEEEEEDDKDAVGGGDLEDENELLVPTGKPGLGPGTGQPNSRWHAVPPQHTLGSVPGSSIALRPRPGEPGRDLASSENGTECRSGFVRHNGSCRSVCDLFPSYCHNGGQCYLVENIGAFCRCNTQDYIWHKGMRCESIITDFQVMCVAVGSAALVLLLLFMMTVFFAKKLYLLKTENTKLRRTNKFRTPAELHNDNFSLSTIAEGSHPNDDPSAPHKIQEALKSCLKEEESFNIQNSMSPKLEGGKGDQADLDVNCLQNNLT

T3: mouse CSPG5 (mouse, UniProt Q71M36 31-566)
T3 construct: Full-length gene expressed on Expi293F cells; also called mouse CSPG5/Expi293F cells
T3 sequence: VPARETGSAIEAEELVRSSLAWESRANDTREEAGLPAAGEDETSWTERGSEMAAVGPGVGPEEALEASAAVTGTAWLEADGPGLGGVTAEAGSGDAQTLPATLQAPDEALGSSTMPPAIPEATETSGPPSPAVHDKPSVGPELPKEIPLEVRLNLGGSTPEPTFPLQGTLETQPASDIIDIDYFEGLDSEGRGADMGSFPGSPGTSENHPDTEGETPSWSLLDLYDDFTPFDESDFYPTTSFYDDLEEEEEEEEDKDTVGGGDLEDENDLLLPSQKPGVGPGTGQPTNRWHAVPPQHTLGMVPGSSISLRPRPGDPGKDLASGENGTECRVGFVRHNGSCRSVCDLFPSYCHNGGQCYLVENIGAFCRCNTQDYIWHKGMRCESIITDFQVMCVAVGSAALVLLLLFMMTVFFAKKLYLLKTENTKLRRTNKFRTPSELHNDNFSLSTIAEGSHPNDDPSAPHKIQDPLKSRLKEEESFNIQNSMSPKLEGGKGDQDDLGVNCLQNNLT

B1: CSPG5201 scFv-hG4PE(R409K) (Fc fusion)
VH: [omitted - about 100 residues]KWNLFDYWGQGTLVTVSS
VL: QSALTQPASVSGSPGQSITISCTGTSTDVNGYNYVSWYQQYAGKAPKLIIFDVSKRPSGVSNRFSGSKSGDTASLTISGLQAEDEADYHCSSYRRLRLPVLFGGGTKLTVL
notes: also called anti-CSPG5 scFv-Fc antibody
B2: CSPG5206 scFv-hG4PE(R409K) (Fc fusion)
VH: [omitted - about 100 residues]KRSLAFDYWGQGTLVTVSS
VL: B1 VL with R94N, L96K, L98P
notes: as for B1
B3: CSPG5207 scFv-hG4PE(R409K) (Fc fusion)
VH: [omitted - about 100 residues]WARTSPFDYWGQGTLVTVSS
VL: B1 VL with R94T, R95P, L96S, L98A, P99R
notes: as for B1
B4: CSPG5214 scFv-hG4PE(R409K) (Fc fusion)
VH: [omitted - about 100 residues]TRRTTMFDYWGQGTLVTVSS
VL: B1 VL with R94N, R95P, L96H, R97H, L98S, P99G
notes: as for B1
B5: CSPG5234 scFv-hG4PE(R409K) (Fc fusion)
VH: [omitted - about 100 residues]RHSYAPFDYWGQGTLVTVSS
VL: B1 VL with R95P, L96K, R97A, L98R, P99S
notes: as for B1
B6: CSPG5230 scFv-hG4PE(R409K) (Fc fusion)
VH: [omitted - about 100 residues]STPARFDYWGQGTLVTVSS
VL: B1 VL with R94H, R95T, L96R, R97P, L98A, P99T
notes: as for B1
B7: CSPG5219 scFv-hG4PE(R409K) (Fc fusion)
VH: [omitted - about 100 residues]MNSWRAFDYWGQGTLVTVSS
VL: EIVLTQSPGTLSLSPGERATLSCRASQSVSSSYLAWYQQKPGQAPRLLIYGASSRATGIPDRFSGSGSGTDFTLTISRLEPEDFAVYYCQQLRRKGSTFGQGSKVEIK
notes: as for B1

What follows are binders tested against mouse CSPG5-GST (mouse) (assay: SPR Biacore T-100, antibody captured, mouse CSPG5-GST analyte).
Experimental: The affinity of the anti-CSPG5 antibodies, the CSPG5202 IgG4PE(R409K), and the AVM IgG4PE(R409K) CSPG5202 dscFv produced in Example 2 for human CSPG5 and mouse CSPG5 was measured using Biacore T-100 (GE Healthcare).
Each of the antibodies was immobilized on a […] sensor chip using a Human antibody Capture kit, and the binding ability was evaluated using human CSPG5-GST and mouse CSPG5-GST produced in Example 4 as analytes. The obtained sensorgram was analyzed with BIA evaluation software, and the dissociation constant (KD value) was calculated.

Row | Kd [nM] | Binder
1 | ≤ 10 | B1
2 | ≤ 10 | B2
3 | ≤ 10 | B3
4 | ≤ 10 | B4
5 | ≤ 10 | B5
6 | ≤ 10 | B6
7 | ≤ 10 | B7

What follows are binders tested against T1, human CSPG5 (assay: FACS, 10 µg/mL antibody, human CSPG5/Expi293F vs Expi293F).
Experimental: (§1) Expi293F cells, human CSPG5/Expi293F cells, mouse CSPG5/Expi293F cells, and monkey CSPG5/Expi293F cells were separately suspended in Staining Buffer (SB) of PBS comprising 0.1% NaN₃ and 1% FBS and dispensed in a round-bottom 96-well plate (manufactured by Becton, Dickinson and Company). After centrifugation (2000 rpm, 4° C., 2 minutes), the supernatant was removed, and to the resulting pellet, 10 μg/mL of each antibody obtained in Example 2 was added to suspend the pellet, and the resulting suspension was left to stand for 30 minutes at ice temperature. After further centrifugation (2000 rpm, 4° C., 2 minutes), the supernatant was removed, and the resulting pellet was washed with SB, and thereafter, 1 μg/mL of an RPE fluorescently labeled goat anti-human antibody (manufactured by Southern Biotech, Inc.) was added thereto, and the resultant was incubated for 30 minutes at ice temperature. After washing with SB, the cells were suspended in SB, and the fluorescence intensity of each cell was measured using a flow cytometer FACS CANTO II (manufactured by Becton, Dickinson and Company). Note that as a negative control, 10 μg/mL of the anti-AVM antibody was used.
(§2) The detection results were analyzed, and a mean fluorescence intensity (MFI) was calculated using a geometric mean. Further, with respect to the MFI when the concentration of each antibody was 10 μg/mL, the ratio of the MFI (mean fluorescence intensity ratio) between the human CSPG5/Expi293F cells and the Expi293F cells (parent cell line) was calculated. Also for the monkey CSPG5/Expi293F cells and the mouse CSPG5/Expi293F cells, the mean fluorescence intensity ratio relative to the Expi293F cells (parent cell line) was calculated by the same procedure, and the results are shown in Table 3.

Row | Mean fluorescence intensity ratio | Binder
8 | 2.41 ratio to parent cell line | B1
9 | 4.31 ratio to parent cell line | B2
10 | 4.23 ratio to parent cell line | B3
11 | 2.15 ratio to parent cell line | B4
12 | 14.1 ratio to parent cell line | B5
13 | 3.35 ratio to parent cell line | B6
14 | 4.75 ratio to parent cell line | B7

Target: T2, monkey CSPG5
Experiment: FACS, 10 µg/mL antibody, monkey CSPG5/Expi293F vs Expi293F
Experimental: as §1, §2

Row | Mean fluorescence intensity ratio | Binder
15 | 1.73 ratio to parent cell line | B1
16 | 3.4 ratio to parent cell line | B2
17 | 3.87 ratio to parent cell line | B3
18 | 4.03 ratio to parent cell line | B4
19 | 10.4 ratio to parent cell line | B5
20 | 4.45 ratio to parent cell line | B6
21 | 5.74 ratio to parent cell line | B7

Each binder was assayed against T3, mouse CSPG5 (assay: FACS, 10 µg/mL antibody, mouse CSPG5/Expi293F vs Expi293F).
Experimental: as §1, §2

Row | Mean fluorescence intensity ratio | Binder
22 | 2.95 ratio to parent cell line | B1
23 | 4.5 ratio to parent cell line | B2
24 | 4.19 ratio to parent cell line | B3
25 | 2.28 ratio to parent cell line | B4
26 | 14.3 ratio to parent cell line | B5
27 | 3.56 ratio to parent cell line | B6
28 | 4.87 ratio to parent cell line | B7
